Among all 50,000 compounds or so, about 800 (1.6%) showed an effect of 50% or more. The list shows a part of the results.

The assay deals with Bcl-2-like protein 10 (Homo sapiens) (UniProt Q9HD36). Description: TR3 peptide-Bcl-B binding displacers, biochemical primary FP assay, phenotype converters (AID 1240).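 Note: 0% = Bcl-B with tracer peptide and DMSO and 100% = tracer peptide lacking Bcl-B.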 The conditions noted are these: GST-Bcl-B / FITC-TR3 peptide fluorescence polarization; stronger effect = higher value; compound at 3.75 mg/L. (In general: Polarisation of emitted light reports the rotation of a fluorescent probe.)
Chain of UniProt Q9HD36 (Q9HD36 whole entry, looked up): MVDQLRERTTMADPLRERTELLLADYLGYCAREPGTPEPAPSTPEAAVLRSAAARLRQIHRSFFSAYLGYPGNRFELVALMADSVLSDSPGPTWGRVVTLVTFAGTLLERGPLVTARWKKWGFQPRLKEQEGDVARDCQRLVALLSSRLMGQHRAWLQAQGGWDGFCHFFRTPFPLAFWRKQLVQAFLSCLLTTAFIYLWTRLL
As to `Cc1c(-c2ccccc2)n[nH]c1C(=O)N/N=C/c1cccc([N+](=O)[O-])c1`, the displacement was -10.6%. As for `Oc1ccccc1N=Cc1sc2ccccc2c1O`, the displacement was determined as 29.8%. Next, `COc1ccc(C(=O)N/C(=C\c2ccc(-c3cccc([N+](=O)[O-])c3)o2)C(=O)NCCc2ccccc2)cc1`: 8.8%. For the compound `C/C(=N\N=C1\NC(=O)C(CC(=O)NCc2ccccc2)S1)c1ccco1` (stereo not given), the displacement was 18.7%. Consider `C=CCNC(=O)c1c(NC(=O)c2ccccc2C)sc2c1CCCCC2`, for which the displacement was -1.7%. Next, `N#CC1=C(N)NC(SCC(=O)c2ccc(Cl)cc2)=C(C#N)C12CCCCC2`: 0.7%; `CC1(C)c2ccccc2N(CCO)C12C=Cc1cc([N+](=O)[O-])ccc1O2` (stereo not given): 6.1%. Next, `CC(O)c1cccc(NC(=O)c2cnn3c2NC(c2ccco2)CC3C(F)(F)F)c1` (stereo not given): 1.3%; `CCOC(=O)C1C(=O)NC(SC)=C(C#N)C1c1ccccc1[N+](=O)[O-]` (stereo not given): -1.5%. Next, `COc1ccc(C(=O)N/C(=C/c2ccc(Br)cc2)c2nc3ccccc3[nH]2)cc1`: 5.7%; `O=C(CC1SC(=Nc2ccccc2)N(c2ccccc2)C1=O)Nc1ccccc1` (stereo not given): 8.4%; `O=C(Nc1ccc2c(c1)oc1ccccc12)c1ccc([N+](=O)[O-])cc1`: 0.5%. As to `Cc1cc([N+](=O)[O-])c(-c2ccc(/C=N/n3cnnc3)o2)cc1Cl`, the displacement was determined as 1.9%.

On to `Cc1ccc(S(=O)(=O)Oc2ccc(Br)cc2/C=C2\SC(N)=NC2=O)cc1`, for which the displacement was -0.6%.

Regarding `Cc1cc(C)n2nc(-c3cccc(Br)c3)cc2n1`, the displacement amounted to 1.9%. The same measure for `O=CNC(Cc1ccc(O)c([N+](=O)[O-])c1)C(=O)O` (stereo not given): 2.3%; for `O=C(c1ccccc1)N1N=C(c2ccc([N+](=O)[O-])cc2)CC1(O)C(F)(F)F` (stereo not given): -2.2%; for `CCOC(=O)c1ccc(NC2SC(=O)N(c3ccccc3)C2=O)cc1` (stereo not given): 3.8%.

Turning to `O=C(N=Nc1c(O)n(CN2CCOCC2)c2ccc(Br)cc12)c1ccncc1`, the displacement was -0.4%.

With `CC(=O)N(CCc1ccc(S(N)(=O)=O)cc1)C1CC(=O)N(c2ccccc2)C1=O` (stereo not given), the displacement came to 5.4%. Regarding `COc1cccc(/C=C2/C(=O)NN(c3ccc(C)c(C)c3)C2=O)c1`, the displacement was determined as 15.5%. Consider `CC(=O)c1c(C)nc(C)nc1NC(=O)Cc1ccccc1`, for which the displacement was found to be 4.6%. `CC1C(=O)NN=C1C(=O)N/N=C/c1cccc(O)c1` (stereo not given): the displacement was -10.8%. On to `CCC(Oc1ccccc1)C(=O)NC(C)C` (stereo not given), for which the displacement is -4.3%. Next, `O=C(CSc1nc2ccc(Br)cc2c(=O)n1-c1ccccc1)NCCOc1ccccc1`: 8.6%; `COC(=O)C1=C(C)NC(C)=C(C(=O)OC)C1c1ccc(OC)cc1`: -6.7%.

Regarding `Cc1cccc(N2C(=O)c3ccc(C(=O)O)cc3C2=O)c1`, the displacement turned out to be 1.3%. Turning to `O=C1CCCC2=C1C(c1ccc(O)cc1)Nc1ccc(C(=O)c3ccccc3)cc1N2` (stereo not given), the displacement is -1.7%. The same measure for `O=C(NC(=C(Cl)Cl)S(=O)(=O)c1ccc(Cl)cc1)c1ccccc1`: 10.3%; for `COc1ccc(NC(=O)/C(=C\c2ccco2)NC(=O)c2ccco2)cc1`: -0.6%; for `O=C(Nc1ccc2nn(-c3ccccc3)nc2c1)C(Cl)(Cl)Cl`: 3%. In the case of `c1ccc(-c2nc(C3COc4ccccc4O3)cs2)cc1` (stereo not given), the displacement is -2.2%.

With `O=C(Nc1ccc(Nc2ccccc2)cc1)c1ccco1`, the displacement worked out at 1.8%. With `COc1ccc(C(=O)NN2C(=O)C3C4C=CC(C5CC45)C3C2=O)cc1` (stereo not given), the displacement is -6.1%.

On to `O=C(CCCN1C(=O)/C(=C/c2ccc(F)cc2)SC1=S)Nc1cccc(C(=O)O)c1`, for which the displacement was found to be 38.1%. In the case of `O=C1c2ccccc2NC(c2ccccc2)N1c1ccc(Cl)cc1` (stereo not given), the displacement came out at 5.1%. Consider `C=CCOc1ccc(/C=C(\C(=O)c2ccc(C)cc2)c2nc3ccccc3o2)cc1`, for which the displacement came to 5.9%.

In the case of `Cc1ccccc1OC(=O)COc1ccc(Cl)cc1Cl`, the displacement was -3.9%. Next, `CCN1C(=O)/C(=C\c2ccc([N+](=O)[O-])o2)SC1=S`: 11.3%; `O=C(Nc1c(-c2ccccc2)nc2ccc(Cl)cn12)c1cccs1`: 10.2%. Take `Cn1c2c(c3cc(C4CCCCC4)ccc31)CCCC2=O`: the displacement is 13.7%. Next, `CC1(C)CC(=O)C2=C(C1)c1c(ccc3ccccc13)NC2c1cc([N+](=O)[O-])ccc1N1CCOCC1` (stereo not given): -4.6%; `CCCCN(CN1C(=O)C2CC=C(Cl)CC2C1=O)CN1C(=O)C2CC=C(Cl)CC2C1=O` (stereo not given): -1.5%. Next, `O=C(Nc1ccc(N2CCOCC2)cc1)c1cccc(Cl)c1Cl`: 14.2%; `O=C(Nc1cc(C(F)(F)F)ccc1Cl)c1nn2c(c1Br)NC(c1cccs1)CC2C(F)(F)F` (stereo not given): 6.4%.

Turning to `CC(CCc1ccccc1)Nc1cc(N2CCN(S(=O)(=O)c3ccccc3)CC2)ccc1[N+](=O)[O-]` (stereo not given), the displacement stood at 10.3%. Turning to `COCCNC(=O)COc1ccc(Cl)cc1C`, the displacement is -6%. The same measure for `Cc1ccc2nc3c(cc(C#N)c(=N)n3CCCN3CCOCC3)c(=O)n2c1`: -10.3%; for `COCCOC(=O)c1ccc(NC(=O)COc2cc(C)c(Cl)c(C)c2)cc1`: 1.4%; for `O=C(CN(Cc1ccccc1)Cc1ccccc1)NC12CC3CC(CC(C3)C1)C2`: -7.3%. The same measure for `COc1cc(/C=N/n2cnnc2)cc(Br)c1OCCOc1ccc(C(C)(C)C)cc1`: -7.7%; for `COc1ccc(C2C3=C(CC(C)(C)CC3=O)OC3=C2C(=O)CC(C)(C)C3)cc1C(=O)O`: -1.9%.

Regarding `CC(CNS(=O)(=O)c1ccccc1)c1ccccc1` (stereo not given), the displacement is -8.5%.

For the compound `Cc1sc(NC(=O)COc2ccccc2)nc1-c1ccccc1`, the displacement was -6.1%. With `CCOc1cc(/C=C2/C(=O)NC(=O)N(c3ccc(OC)cc3)C2=O)cc(Cl)c1O`, the displacement was found to be 4.5%. Turning to `CSCCC(NC(=O)c1ccccc1)C(=O)OCC(=O)Nc1nnc(C)s1` (stereo not given), the displacement stood at 6.4%. The same measure for `CN(C)C1=C/C(=N/S(=O)(=O)c2ccccc2)c2ccccc2C1=O`: -2.8%. The same measure for `O=C(Nc1ccc(N2CCOCC2)cc1)c1ccc([N+](=O)[O-])cc1`: 8.4%; for `O=C(O)c1cn(-c2ccccc2)nc1-c1ccc(Br)cc1`: -11.3%; for `O=C(Nc1ccc(Cl)c(Cl)c1)Nc1nnc(-c2ccccc2)s1`: 7.7%. `Cc1ccc(S(=O)(=O)NC(=NC(Cc2ccccc2)C(=O)O)c2ccccc2)cc1` (stereo not given): the displacement stood at 14.2%. Next, `CCOC(=O)c1c(NC(=O)c2cc([N+](=O)[O-])ccc2Cl)sc2c1CCC2`: 3.7%; `CC(=O)Nc1cc(-c2cccc(C)c2)[nH]n1`: 15.5%. `C/C(=C\C(=O)OCCOC(=O)/C=C(\C)NC1CC(C)(C)NC(C)(C)C1)NC1CC(C)(C)NC(C)(C)C1`: the displacement stood at 5.4%.

Regarding `S=c1[nH]nc(-c2ccccc2)n1/N=C/c1ccc(-c2ccccc2Cl)o1`, the displacement is -3.6%. Next, `O=C(O)CCCCCN1C(=O)C(=O)/C(=C(/O)c2ccccc2)C1c1ccc2c(c1)OCO2` (stereo not given): -11.1%; `Cn1c2c(c3cc(C4CCCCC4)ccc31)CCC/C2=N\O`: -7.9%. Next, `NC(=O)C1CCN(C(=O)c2ccccc2NC(=O)c2ccccc2Br)CC1`: -7.1%; `COc1cccc(C(=O)N2N=C(c3cccc([N+](=O)[O-])c3)CC2(O)C(F)(F)F)c1` (stereo not given): 0.8%. The same measure for `C=CCNC(=O)C(=O)N/N=C/c1ccccc1`: 6.1%.

As to `O=C(Cc1ccc(Cl)cc1)NCc1ccco1`, the displacement is 16.5%. Consider `O=C(Nc1nc2ccccc2s1)c1ccc2c(c1)OCO2`, for which the displacement came out at 5.7%. Next, `COc1ccc(NC(=O)CC2CCC2)c(OC)c1`: 10.6%; `Cc1cccn2c(=O)c(/C=C3\SC(=S)N(Cc4ccccc4)C3=O)c(N3CCOCC3)nc12`: -12.8%.

For the compound `CN(CP(=O)(O)CCc1ccccc1)S(C)(=O)=O`, the displacement is -1.2%. `CC(C)C(C(=O)O)N1C(=O)/C(=C\c2ccccn2)SC1=S` (stereo not given): the displacement is -2.2%. Consider `O=C(Nc1cccc(C(F)(F)F)c1)C1C2C3CCC(C3)C12` (stereo not given), for which the displacement was -1.2%. Next, `O=S(=O)(Nc1ccc(S(=O)(=O)N2CCOCC2)cc1)c1ccccc1`: -1%; `O=C(CC1SC(=Nc2ccccc2)N(c2ccccc2)C1=O)Nc1ccc(F)cc1` (stereo not given): -11.4%; `O=S(=O)(NCCO)c1ccc2c(c1)C(=NO)c1cc(S(=O)(=O)NCCO)ccc1-2`: -1.5%. The same measure for `CCOC(=O)COc1ccccc1/C=N/NC(=O)COc1cccc(Br)c1`: -3%. Turning to `O=C(O)c1cnn2c1NC(c1ccc(F)cc1)CC2C(F)(F)F` (stereo not given), the displacement is 9.4%. As to `O=C(NN1C(=O)/C(=C/c2ccccc2)SC1=S)c1cccnc1`, the displacement was -10.9%.

Turning to `Cc1nc2ccccn2c1C(=O)NC1CCCC1`, the displacement is 12.7%. The same measure for `O=C(COc1ccc(Br)cc1)Nc1cccc(I)c1`: 13.6%; for `O=C(NCCOc1ccccc1)c1cccc2ccccc12`: -17.9%. As to `O=C(Nc1ccccc1Cl)c1cncc(Br)c1`, the displacement is 118%. Next, `O=C(CCCN1C(=O)/C(=C\c2cccs2)SC1=S)Nc1ccccc1O`: 10.6%.

On to `NS(=O)(=O)c1ccc(N=Nc2c(-c3ccccc3)[nH]n(-c3nc(-c4ccccc4)cs3)c2=O)cc1`, for which the displacement was -7.6%. As to `O=C(Nc1ccc(Oc2ccccc2)cc1)c1ccc(Cl)cc1[N+](=O)[O-]`, the displacement was -5.8%. The same measure for `CCOC(=O)c1c(C)n(-c2ccc(OCC)cc2)c2ccc(O)cc12`: -6.7%; for `COc1ccc(CCNC(=O)c2ccc(C#Cc3ccccc3)cc2)cc1OC`: 3.1%; for `CCOc1ccc2nc(SCC(=O)Nc3ccccc3OCC)sc2c1`: -8.1%.

On to `CC1(C)CC(=O)C/C(=N/NC(=O)c2cc3ccccc3cc2O)C1`, for which the displacement was -15.8%. Next, `O=C(O)c1cc2ccccc2c([N+](=O)[O-])c1O`: 7.9%. Next, `CCOC(=O)c1c(NC(=O)C23CC4CC(CC(C4)C2)C3)sc(C(=O)Nc2ccccc2C)c1C`: 49.5%; `COc1cc(C(=O)NCCc2nc3ccccc3[nH]2)cc(OC)c1OC`: -4.4%; `COc1cc([N+](=O)[O-])ccc1NC(=O)c1cccc2ccccc12`: 18.9%. Next, `CCC(C#CCN1CCCCC1)(CC)OCCC#N`: -2.6%; `CCOC(=O)c1sc(NC(=O)c2cc([N+](=O)[O-])ccc2Cl)c(C(=O)OCC)c1C`: -7.6%.

With `CCC1CCCCN1Cc1c(O)ccc2c(=O)c(-c3ccccc3)coc12` (stereo not given), the displacement is -10%. The same measure for `CCOC(=O)c1sc(NC(=O)c2cc3n(n2)C(C(F)(F)F)CC(c2ccccc2)N3)c(C(=O)OCC)c1C` (stereo not given): 5.8%; for `O=C(CCCOc1ccc(Cl)cc1Cl)Nc1ncn[nH]1`: 5.1%; for `COc1cc2c(cc1NC(=O)CN1C(=O)c3ccccc3C1=O)oc1ccccc12`: -0.6%. Take `Cc1cc([N+](=O)[O-])ccc1-c1ccc(C(=O)Nc2ccc3c(c2)oc2ccccc23)o1`: the displacement is -10.8%.

The values above are taken from PubChem BioAssay AID1240 (Sanford-Burnham Center for Chemical Genomics, 2008).
